From PubChem BioAssay (NCATS)
Inconclusive results, whose numbers are uncertain, are shown with a selection of clear calls. Potencies of inconclusive entries are left out as doubtful fits. Activity calls are given as the source filed them. The call rests on the fitted dose curve; in most records, active means well fitted inhibition curve with a large enough effect; inconclusive means small, poorly fitted or top-dose-only effect; inactive means flat fitted curve, though single readings scatter.

Each compound was assayed against Tyrosyl-DNA phosphodiesterase 1 (Homo sapiens) (UniProt Q9NUW8) (assay: Confirmation Assay for Inhibitors of Tyrosyl-DNA Phosphodiesterase (TDP1) (AID 489007; further: nearly all actives have a fitted effect of over 40% in size)). Details: recombinant human TDP1 enzymatic activity, dose-response.
Method in brief: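 Loss of AlphaScreen signal reports Tdp1 cleavage of a dual-labelled DNA substrate. Conditions: 1 nM E. coli-derived enzyme, 15 nM substrate, 15 min compound preincubation, 5 min reaction, 10 min bead incubation, all at room temperature.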
Potency means the concentration at half of the fitted maximal effect; tags describe the fitted curve by direction and shape.

Chain of UniProt Q9NUW8 (Q9NUW8 whole entry, looked up): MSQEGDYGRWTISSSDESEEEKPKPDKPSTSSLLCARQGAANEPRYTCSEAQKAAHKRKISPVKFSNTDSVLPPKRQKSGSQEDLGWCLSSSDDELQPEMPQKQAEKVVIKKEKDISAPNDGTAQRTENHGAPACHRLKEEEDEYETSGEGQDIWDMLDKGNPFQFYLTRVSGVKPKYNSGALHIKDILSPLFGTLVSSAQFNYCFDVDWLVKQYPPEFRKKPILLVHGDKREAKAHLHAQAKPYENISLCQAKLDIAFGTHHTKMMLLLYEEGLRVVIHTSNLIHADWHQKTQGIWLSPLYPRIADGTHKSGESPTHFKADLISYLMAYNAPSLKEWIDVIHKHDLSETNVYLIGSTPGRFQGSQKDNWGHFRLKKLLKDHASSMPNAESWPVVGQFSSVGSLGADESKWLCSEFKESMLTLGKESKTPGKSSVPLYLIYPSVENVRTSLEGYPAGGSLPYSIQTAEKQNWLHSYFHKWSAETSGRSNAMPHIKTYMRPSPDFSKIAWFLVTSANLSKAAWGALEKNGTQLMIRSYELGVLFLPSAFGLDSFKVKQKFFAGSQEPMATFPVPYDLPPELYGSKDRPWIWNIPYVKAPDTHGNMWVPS

Row | SMILES | Potency
1 | CC(=O)c1sc(C(=O)O)c(-c2ccco2)c1-c1ccco1 | inconclusive [inhibitor, partial curve]
2 | O=C(O)/C=C/c1ccc([N+](=O)[O-])o1 | active: 50.1 µM
3 | O=C1C2CC=C(Cl)CC2C(=O)N1CN(Cc1ccco1)CN1C(=O)C2CC=C(Cl)CC2C1=O (configuration not stated) | inconclusive [inhibitor, single point]
4 | CCN(C)c1ccc(/C=N\n2nnnc2N)cc1 | inconclusive [inhibitor, single point]
5 | O=C(O)c1cc(-c2ccco2)nn1-c1ccc(Cl)cc1 | inconclusive [inhibitor, partial curve]
6 | COc1cccc(/C=N/NC(=O)c2c(C)nc3ccc(Br)cn23)c1O | inconclusive [inhibitor, single point]
7 | O=C(O)c1ccc(O)c(N2C(=O)Nc3ccccc3N2O)c1 | inconclusive [inhibitor, single point]
8 | Cc1ccccc1Nc1cccc2nonc12 | active: 100 µM
9 | O=C(Nc1cccnc1)c1cc(-c2ccc3c(c2)OCO3)on1 | inconclusive [inhibitor, partial curve]
10 | Nc1ccc(-c2nc3ccc(C(=O)O)cc3s2)cc1 | inconclusive [inhibitor, single point]
11 | O=C(CCS(=O)(=O)c1ccccc1)Nc1ccc2c(c1)OCO2 | inconclusive [inhibitor, partial curve]
12 | Cc1ccc(C(=O)Nc2ccc(C(=O)OCc3cc(=O)n4ccsc4n3)cc2)cc1 | inconclusive [inhibitor, full curve]
